The target in the assay is GTPase KRas (Homo sapiens) (UniProt P01116). The assay is described as follows: Covalent labelling of cysteine mutants by fragments, read by mass spectrometry (AID 2202238). The settings on record: KRAS G12D cysteine mutants, disulfide tethering, MALDI-TOF labeling, stronger effect = higher value, fragment at 500 µM. Set-up: protein at 5 µM with 500 µM competing thiol for 1.5 h.
The mark [1] stands for this setting: measured here: G75C mutant labeling.
Where [2] appears, read: measured here: H94C mutant labeling.
Where [3] appears, read: measured here: I36C mutant labeling.
[4] abbreviates: measured here: L120C mutant labeling.
The mark [5] stands for this setting: measured here: M67C mutant labeling.
The mark [6] stands for this setting: measured here: M72C mutant labeling.
Setting [7] is: measured here: N86C mutant labeling.
The mark [8] stands for this setting: measured here: P121C mutant labeling.
Setting [9] is: measured here: S122C mutant labeling.
Where [10] appears, read: measured here: S136C mutant labeling.
Where [11] appears, read: measured here: G60C mutant labeling.
[12] abbreviates: measured here: N26C mutant labeling.

Molecules are shown by their SMILES. This is one part of the list. Shown are side measurements of this screen, not its main read-out; they come without a call.

Chain of UniProt P01116 (P01116 whole entry, looked up, the tested form may be a part): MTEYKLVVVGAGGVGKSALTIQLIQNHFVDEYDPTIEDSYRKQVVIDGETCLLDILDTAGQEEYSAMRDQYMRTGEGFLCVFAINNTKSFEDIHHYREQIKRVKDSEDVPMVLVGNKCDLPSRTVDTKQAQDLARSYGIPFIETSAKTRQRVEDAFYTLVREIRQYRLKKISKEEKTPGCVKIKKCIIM

As to `CN(CC(=O)NCc1cccs1)C(=O)CCS`, the percent labeling was found to be 10.1% under setting [1]; 34.6% under setting [2]; 33.2% under setting [3]; 35.5% under setting [4]; 36.5% under setting [5]; 29.7% under setting [6]. In addition, the percent labeling reads like this: under setting [7], 24.4%; under setting [8], 33.3%; under setting [9], 35%; under setting [10], 51.1%.
Take `O=C(CCS)NCCc1cn2ccccc2n1`: the percent labeling is 16.7% under setting [1]; 21.5% under setting [2]; 28.1% under setting [3]; 23% under setting [4]; 38.1% under setting [5]; 21.3% under setting [6]. Further, the percent labeling turned out to be 12% under setting [7], 30.7% under setting [8], 28.5% under setting [9] and 48.8% under setting [10].
With `O=C(CCS)NCc1cc(Cl)c2c(c1)OCO2`, the percent labeling is, setting by setting: under setting [1], 16.5%; under setting [2], 34.7%; under setting [3], 37.6%; under setting [4], 30.5%; under setting [5], 36%; under setting [6], 48.1%. The percent labeling came out at 20.1% under setting [7], 29.1% under setting [8], 29.9% under setting [9] and 47.9% under setting [10].
Take `Cn1cc(-c2nn(C)cc2C(=O)NCCS)cn1`: the percent labeling runs as follows: under setting [11], 29.3%; under setting [1], 14.3%; under setting [2], 34.7%; under setting [3], 32.9%; under setting [4], 33.4%; under setting [5], 38.6%. The compound also showed a percent labeling under setting [6] of 28.2%; a percent labeling under setting [12] of 44%; a percent labeling under setting [7] of 17.7%; a percent labeling under setting [8] of 33%; a percent labeling under setting [9] of 25.4%; a percent labeling under setting [10] of 49.7%.
Turning to `Cn1c(C(=O)NCCS)cc2cc(C(F)(F)F)ccc21`, the percent labeling by setting is: under setting [11], 27.9%; under setting [1], 15.4%; under setting [2], 16.7%; under setting [3], 10%; under setting [4], 13.9%; under setting [5], 10.3%. Besides, the percent labeling is, setting by setting: under setting [6], 29.2%; under setting [12], 29%; under setting [7], 13.2%; under setting [8], 11.3%; under setting [9], 8.2%; under setting [10], 11.8%.
For the compound `O=C(NCCS)c1ccc(N2CCCC2)c(F)c1`, the percent labeling was found to be 17.4% under setting [11]; 15.4% under setting [1]; 11% under setting [2]; 8.2% under setting [3]; 13.7% under setting [4]; 8.5% under setting [5]. Moreover, the percent labeling was 67.7% under setting [6]; 34.8% under setting [12]; 8.9% under setting [7]; 10.2% under setting [8]; 8.8% under setting [9]; 19.4% under setting [10].
`Cc1ccc(OCc2ccc(C(=O)NCCS)o2)cc1`: the percent labeling was found to be 18.5% under setting [11]; 14.5% under setting [1]; 18% under setting [2]; 10.8% under setting [3]; 22.2% under setting [4]; 13.1% under setting [5]. Also, the percent labeling runs as follows: under setting [6], 33.5%; under setting [12], 26.7%; under setting [7], 12.9%; under setting [8], 14.7%; under setting [9], 11.4%; under setting [10], 18.1%.
For the compound `Cc1cnc(C(=O)NCCS)cn1`, the percent labeling by setting is: under setting [11], 31.8%; under setting [1], 23%; under setting [2], 30.4%; under setting [3], 26%; under setting [4], 35.6%; under setting [5], 29.3%. This compound showed a percent labeling under setting [6] of 29.4%; a percent labeling under setting [12] of 35.1%; a percent labeling under setting [7] of 26.3%; a percent labeling under setting [8] of 28.4%; a percent labeling under setting [9] of 30.2%; a percent labeling under setting [10] of 38.2%.
The compound `COc1ccc(Cl)cc1C(=O)N1CCCC1C(=O)NCCS` (stereo not drawn) showed a percent labeling under setting [11] of 42.9%; a percent labeling under setting [1] of 17.2%; a percent labeling under setting [2] of 38.5%; a percent labeling under setting [3] of 36.5%; a percent labeling under setting [4] of 41.8%; a percent labeling under setting [5] of 33.8%. The compound also returned a percent labeling under setting [6] of 36.3%; a percent labeling under setting [12] of 36.1%; a percent labeling under setting [7] of 35.7%; a percent labeling under setting [8] of 32.6%; a percent labeling under setting [9] of 28.4%; a percent labeling under setting [10] of 56%.
Consider `COCCn1c(CCN(C)C(=O)CCS)nc2ccccc21`, for which the percent labeling amounted to 12.7% under setting [1]; 40.7% under setting [2]; 42.7% under setting [3]; 31.4% under setting [4]; 53.7% under setting [5]; 19.3% under setting [6]. In addition, the percent labeling was determined as 23.4% under setting [7], 31.8% under setting [8], 33.1% under setting [9] and 67.4% under setting [10].
In turn, `O=C(NCCS)C1CCCC2CC(O)CCC21` (stereo not drawn) yielded a percent labeling under setting [11] of 33%; a percent labeling under setting [1] of 14.2%; a percent labeling under setting [2] of 35.9%; a percent labeling under setting [3] of 21.6%; a percent labeling under setting [4] of 32.6%; a percent labeling under setting [5] of 30.6%. The same compound yielded a percent labeling under setting [6] of 19.6%; a percent labeling under setting [12] of 35.4%; a percent labeling under setting [7] of 29%; a percent labeling under setting [8] of 30.4%; a percent labeling under setting [9] of 31.1%; a percent labeling under setting [10] of 48.7%.
The compound `CCC(=O)Nc1ccc(OC)cc1NC(=O)CCS` displayed a percent labeling under setting [1] of 12.4%; a percent labeling under setting [2] of 35.4%; a percent labeling under setting [3] of 31.4%; a percent labeling under setting [4] of 30.6%; a percent labeling under setting [5] of 33.8%; a percent labeling under setting [6] of 23.5%. The compound also yielded a percent labeling under setting [7] of 22.1%, a percent labeling under setting [8] of 34.3%, a percent labeling under setting [9] of 30% and a percent labeling under setting [10] of 50.1%.
On to `O=C(NCCS)C1CCCN1Cc1ccc(Cl)cc1` (stereo not drawn), for which the percent labeling is 52.6% under setting [11]; 26.8% under setting [1]; 42% under setting [2]; 21.6% under setting [3]; 22.6% under setting [4]; 32.8% under setting [5]. Besides, the percent labeling is, setting by setting: under setting [6], 45.5%; under setting [12], 45.3%; under setting [7], 24%; under setting [8], 22.8%; under setting [9], 18.7%; under setting [10], 33.8%.
Turning to `O=C(CNC(=O)COc1ccccc1)NCCS`, the percent labeling by setting is: under setting [11], 31%; under setting [1], 15.5%; under setting [2], 31.2%; under setting [3], 24.5%; under setting [4], 46.9%; under setting [5], 36.4%. The percent labeling came out at 24.7% under setting [6]; 41.8% under setting [12]; 27.3% under setting [7]; 35.6% under setting [8]; 33.3% under setting [9]; 39.6% under setting [10].
Regarding `CN(C(=O)CCS)C1CCC(NC(=O)OC(C)(C)C)CC1` (stereo not drawn), the percent labeling under setting [1] is 20%; the percent labeling under setting [2] turned out to be 43.8%; the percent labeling under setting [3] amounted to 33.7%; the percent labeling under setting [4] is 29%; the percent labeling under setting [5] came out at 33.9%; the percent labeling under setting [6] is 24.2%. In addition, the percent labeling stood at 32.9% under setting [7], 35.5% under setting [8], 37.7% under setting [9] and 54.7% under setting [10].
Consider `O=C(NCCS)c1ccn(-c2ncc(C(F)(F)F)cc2Cl)n1`, for which the percent labeling by setting is: under setting [11], 17.9%; under setting [1], 16.9%; under setting [2], 11.4%; under setting [3], 7.9%; under setting [4], 23.2%; under setting [5], 8.1%. Further, the percent labeling reads like this: under setting [6], 27.1%; under setting [12], 24.4%; under setting [7], 8.6%; under setting [8], 7.2%; under setting [9], 7.3%; under setting [10], 20.2%.
In the case of `Cc1cc2c(N3CC(NC(=O)CCS)C3)nccn2n1`, the percent labeling reads like this: under setting [1], 14.1%; under setting [2], 27.4%; under setting [3], 28.2%; under setting [4], 25.1%; under setting [5], 41.3%; under setting [6], 29.2%. Further, the percent labeling under setting [7] amounted to 14.2%, the percent labeling under setting [8] stood at 25.8%, the percent labeling under setting [9] is 26.3% and the percent labeling under setting [10] was 40.8%.
For `CN1C(=O)C(C)(C)c2cc(C(=O)NCCS)ccc21`, the percent labeling by setting is: under setting [11], 37.7%; under setting [1], 17.5%; under setting [2], 34.2%; under setting [3], 25.2%; under setting [4], 40.8%; under setting [5], 34.5%. Also, the percent labeling came to 52.1% under setting [6]; 48.1% under setting [12]; 23% under setting [7]; 27.2% under setting [8]; 30.3% under setting [9]; 52.9% under setting [10].
`CC(C)n1nc(NC(=O)CCS)cc1CO` gave a percent labeling under setting [1] of 12.2%; a percent labeling under setting [2] of 32.5%; a percent labeling under setting [3] of 31.2%; a percent labeling under setting [4] of 28.7%; a percent labeling under setting [5] of 23.4%; a percent labeling under setting [6] of 17.9%. In addition, the percent labeling was found to be 22.1% under setting [7], 31.8% under setting [8], 32.2% under setting [9] and 45.7% under setting [10].
As for `Cn1nc2cc(Br)ccc2c1C(=O)NCCS`, the percent labeling runs as follows: under setting [11], 27.2%; under setting [1], 8.3%; under setting [2], 12.6%; under setting [3], 10.6%; under setting [4], 9.8%; under setting [5], 10.1%. In addition, the percent labeling is, setting by setting: under setting [6], 18.5%; under setting [12], 36.2%; under setting [7], 9.6%; under setting [8], 12.6%; under setting [9], 6.6%; under setting [10], 10.8%.
For the compound `CN1CCOCC1c1n[nH]c(CNC(=O)CCS)n1` (stereo not drawn), the percent labeling came out at 7.3% under setting [1]; 27% under setting [2]; 29.2% under setting [3]; 32% under setting [4]; 33.5% under setting [5]; 13% under setting [6]. The percent labeling was determined as 12.8% under setting [7], 28.8% under setting [8], 36.3% under setting [9] and 35.5% under setting [10].
On to `COc1cc(-n2cnnn2)c(Cl)cc1C(=O)NCCS`, for which the percent labeling is, setting by setting: under setting [11], 15.2%; under setting [1], 7.3%; under setting [2], 12.6%; under setting [3], 13.5%; under setting [4], 0%; under setting [5], 11.6%. The percent labeling under setting [6] came out at 22.5%; the percent labeling under setting [12] worked out at 18.7%; the percent labeling under setting [7] is 12.9%; the percent labeling under setting [8] was 12.9%; the percent labeling under setting [9] worked out at 8.9%; the percent labeling under setting [10] turned out to be 18.8%.
Consider `Cc1ccc2nc(C)c(C(=O)NCCS)cc2c1`, for which the percent labeling under setting [11] was 20.2%; the percent labeling under setting [1] worked out at 13.2%; the percent labeling under setting [2] amounted to 15.5%; the percent labeling under setting [3] is 7.9%; the percent labeling under setting [4] came out at 10.5%; the percent labeling under setting [5] turned out to be 10.4%. For the same compound, the percent labeling by setting is: under setting [6], 16.6%; under setting [12], 44.4%; under setting [7], 10.8%; under setting [8], 11.9%; under setting [9], 8.6%; under setting [10], 10.3%.

Source of the values: PubChem BioAssay AID2202238 (Ras Initiative Chemistry Research Team, Frederick National …, 2025).
